Measurements taken from PubChem BioAssay AID1347417 (National Center for Advancing Translational Sciences (NCATS), 2020).
About 5,300 (4.4%) of roughly 120,000 compounds were called active. The shares of active, inactive and inconclusive entries below differ from those in the screen. Calls follow the shape of the dose curve; as a rule, active = well fitted inhibition curve with a large enough effect; inconclusive = small, poorly fitted or top-dose-only effect; inactive = no such curve, though single readings can be large or run the other way. Potencies of inconclusive entries are doubtful fits and often do not repeat.

Test: qHTS Primary assay for Inhibitors of Plasmodium falciparum Dd2 growth in vitro; also: nearly all actives have a fitted effect of over 65% in size;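 as to activity, negative = inhibition: plate controls were DMSO vehicle for no effect and reference drug for full effect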
Settings: P. falciparum Dd2 growth, SYBR Green, 72 h; activity, negative = inhibition: at 28.9 µM (top of the series) unless noted; series mostly up to 28.9 µM
Method in brief: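 Infected erythrocytes (Dd2, 0.3% parasitemia, 2.5% hematocrit final) are added to compound in RPMI-1640/Albumax II medium, grown 72 h at 37C in low oxygen, then lysed with saponin/Triton-X containing SYBR Green and read by fluorescence.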
Potency is read from the fitted curve at half-maximal effect; tags tell the direction and shape of the fitted curve.

| Structure (SMILES) | Potency | activity, negative = inhibition |
| --- | --- | --- |
| C/C=C(\C)CN1C[C@@H](NC(=O)Cn2ccnc2C)C[C@H]1C(=O)NCC | inactive | – |
| COc1ccc(-c2cc(-c3cccc(NC(C)=O)c3)cn3cncc23)cn1 | active: 2 µM | – |
| CN1CCC(Oc2nccnc2N2CCOCC2)C1 (centres undefined) | inactive | – |
| Cc1nc2cccnc2n1CC1CCCN(S(=O)(=O)c2ccc(CC(C)C)cc2)C1 (centres undefined) | active: 6.31 µM | – |
| CCCC(=O)N1CCC(N2C(=O)C(O)C23CCCCC3)CC1 (centres undefined) | inactive | – |
| O=C(c1ccc2[nH]ccc2c1)N1CCCN(c2cc(-c3ccc(Br)cc3)[nH]n2)CC1 | inconclusive: 0.398 µM [inhibitor, partial curve, poor fit] | – |
| COc1cc(SC)ccc1C(=O)N[C@H]1CCN2C(=O)N(c3cccc(C(F)(F)F)c3)C(=O)[C@@H]2C1 | inactive | – |
| COCCCNC(=O)c1ccc(-n2c(-c3ccccc3)cc3c2CCCCC3)cc1 | active: 5.01 µM | – |
| O=C(O)C[C@@H]1CCN(C(=O)C2CC2)C[C@@H]1CCN1CCC(C(=O)O)CC1 | inactive | – |
| Cc1ccc(S(=O)(=O)N2CC[C@H](c3nc4ccccc4[nH]3)C2)cc1 | inconclusive: 3.55 µM [inhibitor, full curve, poor fit] | – |
| CCn1c2c(c(=O)n3ncc(C(=O)Nc4ccc(Cl)cc4C)c13)CN(Cc1ccc(OC)cc1)CC2 | inconclusive: 14.1 µM [inhibitor, single point] | – |
| Cc1ccc2nc3c(c(Nc4ccc(C)c(C)c4)c2c1)CCC3 | inconclusive: 7.08 µM [inhibitor, partial curve, poor fit] | – |
| CC1CCN(CC2CCCCCN2C(=O)Cc2ccccc2)CC1 (centres undefined) | inconclusive: 1.41 µM [inhibitor, partial curve] | – |
| CC(=O)Nc1cccc(-c2cc3c(ccn3C)c(C(=O)NCc3c(C)cc(C)[nH]c3=O)n2)c1 | inconclusive: 12.6 µM [inhibitor, single point] | – |
| CCc1ccc(CN(Cc2ccco2)C(=O)c2cc(-c3ccc(C)c(F)c3)on2)cc1 | – | inactive: 480% [at 5.79 µM] |
| CC1(CCCCc2ccccc2)COc2ccc(C(=O)NC3CCC(O)CC3)cc2N1 (centres undefined) | inconclusive: 1.26 µM [inhibitor, full curve, poor fit] | – |
| CCOCCc1nn2c(=O)cc(COC(=O)c3ccccc3NC(=O)c3ccc(C)cc3)nc2s1 | inconclusive: 10 µM [inhibitor, single point] | – |
| CCCS(=O)(=O)N1CCc2c(sc3ncnc(N(C)C)c23)C1 | inconclusive: 12.6 µM [inhibitor, single point] | – |
| COc1ccc(CCNC(=O)CCCCn2c(=O)c3ccccc3n(Cc3ccccc3)c2=O)cc1OC | inconclusive: 10 µM [inhibitor, single point] | – |
| CN(C)c1ccc(NC(=O)Cn2cc(S(=O)(=O)Cc3ccccc3Cl)c3ccccc32)cc1 | active: 7.94 µM | – |
| CCCOc1cccc(C(=O)N2CCCCC2CCN2CCCCC2)c1 (centres undefined) | inconclusive: 10 µM [inhibitor, single point] | – |
| CC(C)C[C@H]1NC(=O)[C@@H]2C[C@@H](NC(=O)CS(=O)(=O)c3ccccc3)CCN2C1=O | inconclusive: 1 µM [inhibitor, full curve, poor fit] | – |

| Structure (SMILES) | Potency | activity, negative = inhibition |
| --- | --- | --- |
| CC(NC(=O)c1ccc2c(c1)CC(=O)N2Cc1ccccc1)c1ccc(F)cc1 (centres undefined) | inconclusive: 7.08 µM [inhibitor, partial curve, poor fit] | – |
| Cc1ccc(N(Cc2cccs2)C(=O)c2ccccc2[N+](=O)[O-])cc1 | inactive | – |
| Cc1ccccc1Cn1c(C)c(CNCCCc2ccccc2)c(C(=O)O)c1C | inconclusive: 11.2 µM [inhibitor, partial curve, poor fit] | – |
| CCC(CC)c1cc([C@H]2CN3CC[C@H]2C[C@@H]3CNC(C)=O)nc(-c2ccncc2)n1 | active: 2 µM | – |
| O=C(NCc1cccnc1)[C@@H]1C[C@@H](O)CN1C1CCN(C(=O)Cc2ccccc2)CC1 | inactive | – |
| CC(C)c1ccc(N2C(=O)N(Cc3cccc([N+](=O)[O-])c3)c3ccccc3S2(=O)=O)cc1 | inconclusive: 17.8 µM [inhibitor, single point] | – |
| COc1ccc(NS(=O)(=O)c2ccc3c(c2)[C@H]2C=CC[C@H]2[C@@H](c2ccc(C(=O)O)cc2)N3)cc1 | inconclusive: 17.8 µM [inhibitor, partial curve, poor fit] | – |
| Cc1cnc(C2CCN(S(=O)(=O)c3ccccc3)C2)n1C(C)C (centres undefined) | active: 3.98 µM | – |
| OCC1CN(c2ncccn2)CC12CCN(Cc1cccc3[nH]ccc13)CC2 (centres undefined) | inconclusive: 12.6 µM [inhibitor, partial curve, poor fit] | – |
| CC(C)C[C@@H]1N[C@H](C(=O)N2CCN(C)CC2)Cc2cn(Cc3nccn3C)c3cccc1c23 | inconclusive: 1 µM [inhibitor, partial curve, poor fit] | – |
| O=C1N[C@@H]2CCN(C(=O)c3ccc4ccccc4c3)[C@@H]2C(=O)N1c1ccc(F)cc1 | inconclusive: 7.94 µM [inhibitor, partial curve, poor fit] | – |
| COc1ccc(-c2ccc3ncc(Nc4ccc5c(c4)OCO5)n3n2)cn1 | inconclusive: 3.55 µM [inhibitor, full curve, poor fit] | – |
| Cc1nc(-c2cccc(NC(=O)N[C@H](C)c3onc(C)c3C(=O)O)c2)no1 | inactive | – |
| O=C(C1CC1)N1CCCN(S(=O)(=O)c2ccc3c(c2)OCCO3)c2ccccc21 | inconclusive: 17.8 µM [inhibitor, single point] | – |
| CCOC(=O)c1cc2c(=O)n3ccccc3nc2n(Cc2ccco2)c1=NC(=O)c1cccc(Br)c1 | inconclusive: 1.41 µM [inhibitor, partial curve] | – |
| CC1=NS(=O)(=O)N(Cc2ccc(F)c(F)c2)C=C1C(=O)O | inconclusive: 2 µM [inhibitor, full curve, poor fit] | – |
| CC(C)c1noc(C2CCCN(S(=O)(=O)c3cccs3)CCC(=O)NCC2)n1 (centres undefined) | inconclusive: 10 µM [inhibitor, single point] | – |
| O=C1CC(c2ccccc2)N(C(=O)NCc2ccccc2)CCCCCN1 (centres undefined) | inactive | – |
| O=C1[C@@H]2C[C@@H](CN2C(=O)c2ccno2)Oc2ccccc2N1Cc1ccc(OC(F)(F)F)cc1 | inconclusive: 11.2 µM [inhibitor, partial curve, poor fit] | – |
| COc1cc(C2C(C(=O)Nc3ccccc3C)=C(C)Nc3nc(SCc4cc(C)ccc4C)nn32)ccc1O (centres undefined) | inconclusive: 12.6 µM [inhibitor, single point] | – |
| Cc1cccn2c(=O)c(C(=O)N3CCN(c4ccc(Cl)cc4)CC3)cnc12 | inconclusive: 11.2 µM [inhibitor, single point] | – |
| O=C(Cc1ccccc1)N1CCCN(c2cc(-c3ccc(Br)cc3)[nH]n2)CC1 | inactive | – |

| Structure (SMILES) | Potency | activity, negative = inhibition |
| --- | --- | --- |
| O=C(Nc1cccc(F)c1)Nc1cccc(-c2nnc3n2CCCC3)c1 | inconclusive: 7.94 µM [inhibitor, partial curve, poor fit] | – |
| Cc1ccc(NC(=O)C2CCN(C(=O)c3nnn4c3COC(c3ccc(C)cc3)C4)CC2)cc1 (centres undefined) | inactive | – |
| COCc1cn(C[C@H]2C[C@@H](NC(=O)Nc3cccnc3)[C@H](O)[C@@H]2O)nn1 | inactive | – |
| Fc1cc(Nc2cnc3ccc(-n4ccnc4)nn23)cc(N2CCOCC2)c1 | inconclusive: 5.62 µM [inhibitor, single point] | – |
| COc1ccc(-c2cc([C@H]3CN4CC[C@H]3C[C@@H]4CNC(=O)Nc3cccc4ccccc34)n(C)n2)cc1OC | inconclusive: 2.82 µM [inhibitor, single point] | – |
| O=C(Cc1ccccc1)N1CCC(N2CC(OCC3CC3)C23CCOCC3)CC1 (centres undefined) | inconclusive: 10 µM [inhibitor, partial curve, poor fit] | – |
| CCCCNC(=O)N1C[C@H]2OC(=O)N(Cc3ccc(OC)c(OC)c3)[C@H]2C1 | inactive | – |
| COc1cc(CNC(=O)c2c(C)noc2-c2ccc(OC(F)(F)F)cc2)cc(OC)c1 | inconclusive: 17.8 µM [inhibitor, single point] | – |
| COc1ncccc1-c1cccc(COc2ccc3c(cnn3CC[S+](C)(=O)[O-])c2)c1 | inconclusive: 31.6 µM [inhibitor, single point] | – |
| O=C(CCc1ccccc1)N1CCCC2(C1)Nc1cccnc1NC2=NC1CCCC1 (centres undefined) | inconclusive: 2.24 µM [inhibitor, single point] | – |
| CCc1ccccc1NC(=O)CCCn1c(=O)c2cccn2c2ccccc21 | inconclusive: 11.2 µM [inhibitor, single point] | – |
| O=C(c1ccco1)N1CC(Oc2ccccc2-c2nc(-c3ccccc3)no2)C1 | active: 3.98 µM | – |
| CC1(C(=O)N2C[C@@H](COc3cccnc3)[C@H](c3ccccn3)C2)CC1 | inactive | – |
| CC(C)C(=O)N1CCC2(CC1)OCC(C(=O)NCc1ccc3c(c1)OCO3)N2C(=O)c1ccccc1 (centres undefined) | inconclusive: 8.91 µM [inhibitor, partial curve, poor fit] | – |
| COc1ccc2c(ccn2CCNC(=O)Cn2nc3c(cc2=O)CCCCC3)c1 | inactive | – |
| O=C(c1cc(COc2c(F)cccc2F)on1)N1CCCCC1CCc1ccccc1 (centres undefined) | inactive | – |
| CS(=O)(=O)N1CCC(CC(=O)NC2CCCCC2)C1 (centres undefined) | inactive | – |
| CCc1nonc1NC(=O)c1oc2cc(C)c(C)cc2c1C | inconclusive: 17.8 µM [inhibitor, partial curve, poor fit] | – |
| CC1(CNc2ccccc2)COc2ccc(C(=O)NCc3ccc(F)cc3)cc2N1 (centres undefined) | inconclusive: 0.631 µM [inhibitor, full curve] | – |
| CCOC(=O)C1(Cc2cccc(OC)c2)CCCNC1 (centres undefined) | active: 11.2 µM | – |
